# In PMC4336329 (PLoS ONE, 2015):
# Out of some 310,000 compounds screened, about 14,000 (4.5%) showed an effect of 50% or more. Effects have a minus sign here. This is one part of the list.
# Target: human ether-à-go-go-related gene (hERG) potassium channel (human, UniProt Q12809)
# Test: primary screen, population patch clamp on CHO cells stably expressing hERG
# 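Note: peak tail current of the secondary pulse compared with the same well before compound.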
# Chain of human ether-à-go-go-related gene (hERG) potassium channel (Q12809 whole entry, looked up): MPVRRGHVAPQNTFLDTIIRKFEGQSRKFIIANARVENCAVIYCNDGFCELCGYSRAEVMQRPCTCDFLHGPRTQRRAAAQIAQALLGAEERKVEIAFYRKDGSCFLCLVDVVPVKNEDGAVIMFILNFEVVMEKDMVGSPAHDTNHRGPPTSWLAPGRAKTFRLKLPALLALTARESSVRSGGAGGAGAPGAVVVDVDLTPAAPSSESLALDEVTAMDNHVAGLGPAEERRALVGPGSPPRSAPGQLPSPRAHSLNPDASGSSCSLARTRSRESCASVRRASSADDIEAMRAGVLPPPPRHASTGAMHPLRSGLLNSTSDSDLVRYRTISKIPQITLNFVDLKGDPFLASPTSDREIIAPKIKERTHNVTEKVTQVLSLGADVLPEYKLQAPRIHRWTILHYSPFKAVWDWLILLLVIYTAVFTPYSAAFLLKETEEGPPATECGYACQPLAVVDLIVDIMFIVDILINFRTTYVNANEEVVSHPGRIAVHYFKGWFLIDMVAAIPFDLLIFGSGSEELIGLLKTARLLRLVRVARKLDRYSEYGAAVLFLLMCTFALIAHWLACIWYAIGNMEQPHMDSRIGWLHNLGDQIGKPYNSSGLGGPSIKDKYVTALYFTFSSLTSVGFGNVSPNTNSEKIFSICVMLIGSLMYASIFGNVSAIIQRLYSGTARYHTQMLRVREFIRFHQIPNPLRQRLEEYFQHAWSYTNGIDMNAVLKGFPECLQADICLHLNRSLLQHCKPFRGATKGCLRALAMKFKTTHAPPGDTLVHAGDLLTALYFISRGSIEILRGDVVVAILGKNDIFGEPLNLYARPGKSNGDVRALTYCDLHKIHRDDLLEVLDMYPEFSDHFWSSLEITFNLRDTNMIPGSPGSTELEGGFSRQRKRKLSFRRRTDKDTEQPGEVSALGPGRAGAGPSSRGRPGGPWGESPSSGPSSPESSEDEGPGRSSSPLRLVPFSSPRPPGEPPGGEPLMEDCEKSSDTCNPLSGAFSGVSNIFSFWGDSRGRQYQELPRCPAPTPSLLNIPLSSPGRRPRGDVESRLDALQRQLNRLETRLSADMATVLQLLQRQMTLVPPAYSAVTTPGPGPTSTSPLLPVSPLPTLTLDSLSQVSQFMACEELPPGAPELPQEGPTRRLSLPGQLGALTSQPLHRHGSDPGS
row,Compound,"hERG current change (%, negative = inhibition) at 10uM"
1,CC(C)(C)C(=O)CNS(=O)(=O)c1ccc(S(=O)(=O)NC2CCCC2)cc1,-3.36%
2,COc1ccc(NC(=S)NC(C)Cc2cccs2)cc1 (stereo not shown),7.6%
3,CN(C)CCCN(C(=O)c1ccc(S(=O)(=O)N2CCc3ccccc32)cc1)c1nc2ccc(Cl)cc2s1.Cl,10.5%
4,O=C(c1ccccc1)c1nn(-c2ccccc2)c(=O)cc1C(F)(F)F,-14.7%
5,Cc1c(N=Cc2cc(Br)cc(Br)c2O)cccc1C(=O)O,9.97%
6,N#CC(c1cccc(Cl)c1)c1ccc2c(C(F)(F)F)cc(C(F)(F)F)nc2n1 (stereo not shown),4.7%
7,Cn1ccnc1COc1ccc(C=O)cc1,10.4%
8,O=C(NC1CCCCC1)N1CCN(CCc2ccccc2)CC1,-21.6%
9,Cc1nc(-c2ccccc2)nc2[nH]ccc(=O)c12,10.7%
10,CCCC[C@H]1COCCS(=O)(=O)N1Cc1cccc(Cl)c1,-17.6%
11,O=C(Cc1ccc(S(=O)(=O)N2CCCCC2)s1)Nc1ccc(F)cc1F,-3.7%
12,CN(C)CCNc1c2c(nc3ccccc13)CCC2,-0.291%
13,O=c1c(C(c2ccc(Cl)cc2)c2c(O)nc3n(c2=O)CCCS3)c(O)nc2n1CCCS2,21.3%
14,CCCCNC(=O)N1CCc2ccccc2C1,11.5%
15,N#CC1=C(S)N=C(N)C(c2nc(-c3ccccc3)cs2)C12CCCCC2 (stereo not shown),20.4%
16,O=c1oc2ccccc2cc1-c1csc(NN=C2CCCC2)n1,8.91%
17,CCOC(=O)CCC(=O)OCC(=O)NC(C)C1CC2CCC1C2 (stereo not shown),19.3%
18,CC(=O)NCCc1nc2cc(NS(=O)(=O)c3ccc(Cl)cc3)ccc2n1C,10.4%
19,CCCN1CN(CCc2ccccc2)CNC1=S,2.91%
20,N#CC1=C(SCC(=O)c2ccc(Cl)cc2)NC2=C(C(=O)CCC2)C1c1ccco1 (stereo not shown),-13.2%
21,CCOC(=O)C1=C(C)N(C)C(=O)NC1c1cccc2ccccc12 (stereo not shown),-9.17%
22,Cc1ccc(Cl)cc1N1CCN(Cc2nnnn2C2CCCCC2)CC1,7.78%

row,Compound,"hERG current change (%, negative = inhibition) at 10uM"
1,COc1ccc(/C=C(\C#N)C(=O)Nc2cc(S(=O)(=O)N3CCOCC3)ccc2N2CCCC2)cc1,-5.44%
2,COc1ccc(C(=O)Nc2ccc(S(=O)(=O)Nc3nccnc3OC)cc2)cc1,8.73%
3,CC(C)C(NS(=O)(=O)c1cccc2nsnc12)C(=O)Nc1nccs1 (stereo not shown),-42.2%
4,O=C(COC(=O)c1ccccn1)Nc1cccnc1Cl,-5.76%
5,CCc1cc(=O)n2[nH]c(-c3ccccc3)c(-c3ccccc3)c2n1,10.3%
6,CC(=O)c1cccc(CN2CCCC(C(=O)Nc3ccc(-c4ccco4)cc3)C2)c1 (stereo not shown),-6.44%
7,CCCOc1ccc(NC(=O)CC2Nc3ccccc3NC2=O)cc1 (stereo not shown),38.1%
8,O=C(CSc1nnc(C2CC2)n1Cc1ccccc1)c1cc2ccccc2o1,-5.84%
9,O=[N+]([O-])c1cc2c(cc1/C=N/NS(=O)(=O)c1ccc(Br)cc1)OCO2,8.13%
10,COC(=O)c1sccc1NC(=O)c1cc2c(s1)CCCC2,2.12%
11,C=CCN1C(=O)c2ccc(C(=O)N(C)CC(=O)Nc3ccc(Br)cc3C)cc2C1=O,-52.5%
12,CC(=O)c1ccc(NS(=O)(=O)c2cc(-c3cnc(C4CC4)o3)ccc2C)cc1,19.1%
13,CCn1c(=O)c(C(=O)NCCc2ccc(OC)c(OC)c2)c(O)c2ccccc21,-6.58%
14,CC12CCC(C(=O)N/N=C/c3ccc(O)cc3)(OC1=O)C2(C)C (stereo not shown),9.27%
15,CCc1cc2cccc(C)c2nc1SCC(=O)Nc1cc(C)on1,20.8%
16,O=C(NC(=S)Nc1ccc2c(c1)OCCO2)c1ccco1,14.9%
17,Nc1nc(Cl)cc(=O)n1Cc1ccc(Cl)cc1,12.2%
18,CC(=O)Nc1c(O)nc(SCc2ccc(Cl)cc2)[nH]c1=O,6.95%
19,O=C(Nc1c(O)c2ccccc2[nH]c1=O)c1ccco1,4.3%
20,O=C(CN1CCOCC1)NNC(=S)Nc1ccc(Cl)cc1,14.1%
21,O=C(NNC(=O)c1ccc2ccccc2c1)Nc1ccc(F)cc1,12.9%
22,O=C(CCS(=O)(=O)c1ccc2c(c1)NC(=O)CS2)NCCc1ccc(Cl)cc1,9.73%

row,Compound,"hERG current change (%, negative = inhibition) at 10uM"
1,CC(C)C(NC(=O)c1ccccc1Cl)C(=O)OCc1nc2scc(-c3ccccc3Cl)c2c(=O)[nH]1 (stereo not shown),-11.6%
2,CCCNC(=O)Nc1ccc2c(c1)N(C)C(=O)c1ccccc1S2,-15.7%
3,COCCC(=O)Nc1ccc2c(c1)CN(C(=O)CCSC)CC2,2.87%
4,O=C(N/C(=C\c1cccs1)C(=O)N1CCOCC1)c1cccs1,-9.07%
5,Cc1occc1C(=O)N/N=C/c1ccc(-c2ccccc2)cc1,6.3%
6,CCOC(=O)c1c(NC(=O)C2C3CCC(O3)C2C(=O)O)sc2c1CCC(CC)C2 (stereo not shown),-21.1%
7,CCOC(=O)N1CCN(c2cc(=O)n(Cc3ccc(F)cc3)c(=O)[nH]2)CC1,-10.1%
8,COc1ccc(NC2CCCN(C(=O)c3cccs3)C2)cc1 (stereo not shown),6.1%
9,Cn1nc(C(=O)Nc2ccc(S(=O)(=O)N3CCOCC3)cc2)c2ccccc2c1=O,2.36%
10,N#Cc1nc(-c2ccc(Cl)cc2)oc1NCC1CCCO1 (stereo not shown),31.3%
11,Cc1cc(C(=O)CSc2ncccn2)c(C)n1Cc1ccco1,0.392%
12,COc1ccc(CCn2c(=N)c(S(=O)(=O)c3ccc(C)cc3)cc3c(=O)n4ccccc4nc32)cc1,15.1%
13,Cc1oc2cc(Br)c(O)c(Br)c2c1-c1ccccc1,-13.5%
14,Cc1cc(NCCCO)n2nc(-c3cccs3)cc2n1,-39.6%
15,COc1cccc(CN2CCC(n3nccc3NC(=O)CCCc3ccccc3)CC2)c1,-71.3%
16,CN1C(=O)c2ccc(NC(=S)NC(=O)C(C)(C)C)cc2C1=O,-6.06%
17,COc1ccc(CCNC(=O)NC2CCCCC2)cc1OC,8.03%
18,CC(C(=O)O)c1ccc(N2Cc3ccccc3C2=O)cc1 (stereo not shown),20%
19,COc1ccccc1NC(=S)N1CCC(c2nc3ccccc3o2)CC1,-9.31%
20,Cc1ccc(CN(CC(=O)NCCc2ccccc2)C(=O)c2csnn2)cc1,-38.5%
21,COc1ccc(C(C(=O)NCc2ccccc2)N(C(=O)c2snc(C(N)=O)c2N)C2CCCC2)cc1 (stereo not shown),-22.6%
22,CC(C)(Oc1ccc(Cl)cc1)C(=O)NCc1ccncc1,-1.22%

row,Compound,"hERG current change (%, negative = inhibition) at 10uM"
1,COCCNC(=O)C(c1cccnc1)N(Cc1ccccc1)C(=O)Cn1nnc2ccccc21 (stereo not shown),11.9%
2,COc1cc(C(=O)Nc2cc(-c3ccccc3)[nH]n2)cc(OC)c1OC,-22.8%
3,Cc1ccc(OCC(=O)N/N=C2/SCC(=O)N2Cc2ccccc2)cc1,-37.8%
4,COc1ccc(OCCCC(=O)Nc2nc(-c3ccccn3)cs2)cc1,15.1%
5,CCCCCc1cc(=O)oc2c(C(CCN3CCCCC3)c3ccc4c(c3)OCO4)c(OC)cc(OC)c12 (stereo not shown),-54.3%
6,CSCC[C@H](NC(=O)OC(C)(C)C)c1nnc(SCC(=O)N(C)C)o1,9%
7,O=C(Nc1ccc(Cl)c(S(=O)(=O)N2CCCCC2)c1)c1cnccn1,-42.6%
8,O=S(=O)(Nc1nc2c(s1)CCCC2)c1ccc2ccccc2c1,7.46%
9,Cc1cccc(-c2ncc(CN3CCN(CCC(C)C)C(CCO)C3)cn2)c1 (stereo not shown),-45%
10,COc1ccnc(N=CNOCc2cccc(C(F)(F)F)c2)c1C#N,17.2%
11,Cc1ccc(/C=N/NC(=O)c2nnn(-c3nonc3N)c2CN(C)C)o1,-7.52%
12,O=C(Cc1ccccc1)NCCS(=O)(=O)N1CCN(c2cccc(Cl)c2)CC1,-82.8%
13,COc1cc(CNCc2cccnc2)ccc1OCC(=O)NC(C)(C)C.Cl,19.4%
14,Cc1[nH]ccc(=O)c1OCc1ccc(Cl)cc1,-3.48%
15,COc1cc(OC)cc(C(=O)NCC(=O)OCc2csc(-c3ccccc3)n2)c1,11%
16,COc1ccc(OC)c(S(=O)(=O)Nc2ccc3[nH]c(=O)[nH]c3c2)c1,11.3%
17,CC1(C)CC2CC(C)(CN2C(=O)COC(=O)Cn2[nH]c(=O)c3ccccc3c2=O)C1 (stereo not shown),2.26%
18,CCCCC(=O)N1CCCC(c2nc3c(nnn3Cc3cc(C)ccc3C)c(=O)[nH]2)C1 (stereo not shown),-52.2%
19,CC(C)Oc1cccc(C(=O)C2CCCN(S(C)(=O)=O)C2)c1 (stereo not shown),12.7%
20,O=C(O)c1cccc(NC(=S)N/N=C/c2ccccc2OCc2ccc(Br)cc2)c1,9.12%
21,COC(=O)CCc1cccc(CCC(=O)OC)c1,3.19%
22,COc1cc(C2C(C#N)=C(N)Oc3n[nH]c(-c4ccccn4)c32)cc(OC)c1OC (stereo not shown),7.34%
